Results from publication PMC4336329 (PLoS ONE, 2015).
The whole screen tested about 310,000 compounds, of which about 2,200 (0.71%) showed an effect of 50% or more. The effect is printed as a negative number. This is one part of the list.

Each compound was assayed against human ether-à-go-go-related gene (hERG) potassium channel (human, UniProt Q12809) (assay: primary screen, population patch clamp on CHO cells stably expressing hERG).
Sequence of human ether-à-go-go-related gene (hERG) potassium channel (Q12809 whole entry, looked up): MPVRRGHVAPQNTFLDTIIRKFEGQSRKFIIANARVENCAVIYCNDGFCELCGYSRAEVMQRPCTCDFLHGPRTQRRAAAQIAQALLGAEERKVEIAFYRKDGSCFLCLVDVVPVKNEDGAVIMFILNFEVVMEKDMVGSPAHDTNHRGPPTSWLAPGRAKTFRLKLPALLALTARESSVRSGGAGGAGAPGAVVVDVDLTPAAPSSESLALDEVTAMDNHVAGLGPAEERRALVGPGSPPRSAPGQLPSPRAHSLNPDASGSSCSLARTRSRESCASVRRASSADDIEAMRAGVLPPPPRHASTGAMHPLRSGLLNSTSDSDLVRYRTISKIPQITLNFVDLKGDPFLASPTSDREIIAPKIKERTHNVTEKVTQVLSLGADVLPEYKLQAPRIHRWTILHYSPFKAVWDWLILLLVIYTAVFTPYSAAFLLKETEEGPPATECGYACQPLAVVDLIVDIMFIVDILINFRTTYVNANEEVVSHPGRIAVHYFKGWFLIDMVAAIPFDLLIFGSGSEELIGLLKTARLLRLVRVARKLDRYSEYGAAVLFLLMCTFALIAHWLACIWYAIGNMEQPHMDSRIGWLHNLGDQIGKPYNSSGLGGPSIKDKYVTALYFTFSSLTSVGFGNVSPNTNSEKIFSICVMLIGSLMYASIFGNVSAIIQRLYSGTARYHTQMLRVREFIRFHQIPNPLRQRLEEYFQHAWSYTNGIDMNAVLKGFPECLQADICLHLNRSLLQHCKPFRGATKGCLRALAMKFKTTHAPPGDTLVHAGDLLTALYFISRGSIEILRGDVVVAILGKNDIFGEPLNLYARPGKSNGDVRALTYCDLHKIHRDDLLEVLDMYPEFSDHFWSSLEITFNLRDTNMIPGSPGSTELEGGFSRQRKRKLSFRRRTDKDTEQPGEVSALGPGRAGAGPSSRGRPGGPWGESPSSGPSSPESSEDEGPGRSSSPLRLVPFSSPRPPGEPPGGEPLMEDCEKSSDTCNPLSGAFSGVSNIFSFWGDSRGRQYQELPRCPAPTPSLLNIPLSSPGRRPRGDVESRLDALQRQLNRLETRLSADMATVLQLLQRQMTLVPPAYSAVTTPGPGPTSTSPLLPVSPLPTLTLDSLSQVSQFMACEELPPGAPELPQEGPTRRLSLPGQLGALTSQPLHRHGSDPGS

Compound | hERG current change (%, negative = inhibition) at 1uM [%]
Cc1nc2sc3c(c2c(=O)n1NC(=O)CCl)CCCC3 | 15.3
CCOc1c2ccc(C(=O)NCc3ccccc3OC)cc2nn1CC | 14.8
CCOC(=O)/C=C/C(=O)Nc1ccc(S(=O)(=O)Nc2cc(C)on2)cc1 | 10.3
CCCCOc1ccc(-c2nnn(C(C)C(=O)OCC)n2)cc1 (stereo not drawn) | 10.8
COC(=O)c1ccccc1NC(=O)CSc1nnc(-c2cccc(NC(C)=O)c2)n1C | 2.9
CCNC(=O)c1ccccc1-c1nc(-c2ccccc2OC)no1 | 11.8
CCOC(=O)C1=C(C)OC(N)=C(C#N)C1c1c(C)nn(-c2ccccc2)c1Cl (stereo not drawn) | 6.47
CCOc1ccccc1OCCCC(=O)Nc1ccc(OC)nc1 | 8.35
COC(=O)c1ccc(C(c2c(N)n(Cc3ccccc3)c(=O)n(C)c2=O)N2CCOCC2)cc1 (stereo not drawn) | -12.5
O=S(=O)(c1ccc(F)cc1)N1CCC(c2nc3ccccc3[nH]2)CC1 | 1.03
COc1ccc(Cl)cc1-c1nc(N)nc(N(C)C)n1 | -4.35
CCOc1ccc(NC(=O)NC2CCCc3ccccc32)cc1 (stereo not drawn) | 12.4
O=C(NCc1ccccn1)c1cc(-c2ccc(Cl)cc2)oc1C(F)(F)F | 9.77
Cc1ccc(C(=O)NCCC(=O)N2CCOCC2)cc1 | 12.6
CC(OC(=O)CCN=C1NS(=O)(=O)c2ccccc21)C(=O)Nc1ccc(F)c(F)c1F (stereo not drawn) | 4.18
O=C(CCCCCN1C(=O)c2cccc([N+](=O)[O-])c2C1=O)Nc1ccccc1F | 15.3
O=C(O)CCN1CCc2ccccc2C1c1ccncc1 (stereo not drawn) | 14.8
CCOC(=O)C1CCCN(C(=O)/C=C/c2ccc([N+](=O)[O-])cc2)C1 (stereo not drawn) | -47.2
CC(=O)c1ccc(OCC(=O)Nc2ccc3c(c2)CCC3)cc1 | 19.4
S=C(Nc1ccc2nccnc2c1)N1CCCC1 | 42
CN1CCN(/C=N/c2c(C#N)cnn2-c2ccccc2)CC1 | -14.3
CCOC(=O)C(Cc1ccc(NC(=O)/C(=C/c2ccc(OC(C)=O)cc2)NC(C)=O)cc1)N1C(=O)c2ccccc2C1=O (stereo not drawn) | 12.4
CC(C)=NN1C(=O)c2ccccc2NC1(C)C | 6.62

Compound | hERG current change (%, negative = inhibition) at 1uM [%]
Cl.NCCCCCc1nnc(SCc2ccc(Cl)c(Cl)c2)o1 | 2.47
CSc1ccc(CN2CCCN(C)CC2)cc1 | 8.54
COc1cc(C)c(Cl)c(C)c1S(=O)(=O)NCc1cccnc1 | 11.9
CC1CCCN(c2ccc(C(=O)Nc3nnc(C4CC4)s3)cc2[N+](=O)[O-])C1 (stereo not drawn) | 14.7
O=C(c1cc2c(s1)-c1ccccc1OC2)N1CCCC1 | 1.5
COc1ccc(NC(=O)C2CCN(S(C)(=O)=O)CC2)cc1OC | 16.9
CCOc1cc(CNc2ccc3c(c2)CCC3)ccc1O | 17.7
Cc1cccc(CSc2nc3sc(C)c(C)c3c(=O)n2Cc2ccco2)c1 | 15.4
COc1ccc(C(=O)CC(c2ccccc2)C2CCCCC2=O)cc1 (stereo not drawn) | 13.7
COc1cccc(C(=O)NCC(=O)N2CCC(C)CC2)c1 | 9.4
C#CCOC(=O)c1cc(Cl)c(=O)n(Cc2ccc(Cl)cc2Cl)c1 | 4.75
CCCSc1nc(NCc2ccco2)c2c3c(sc2n1)COC(C)(C)C3 | 4.9
COc1ccc(C2=NN(S(C)(=O)=O)C(c3cccs3)C2)cc1 (stereo not drawn) | 6.45
O=C(Nc1ccccc1)c1cc([N+](=O)[O-])ccc1N1CCNCC1 | 1.3
OC(CNC1CCCCC1)c1ccccc1 (stereo not drawn) | 16.4
c1ccc(-c2nc(-c3ccccn3)no2)cc1 | 9.94
O=C(c1cc(Br)c[nH]1)N1CCSCC1 | 16
CC(=O)C(C)Oc1ccc(Cc2ncc(C(F)(F)F)cc2Cl)cc1 (stereo not drawn) | -3.77
C=C(C)CN=c1scc(C)n1/N=C/c1ccco1 | 1.93
Cc1ccccc1NCC(=O)N=Nc1c(O)[nH]c2ccc([N+](=O)[O-])cc12 | 6.74
CCCN1CCN(C(=O)c2oc3ccccc3c2NC(=O)C2CC2)CC1 | 4.69
Cc1c(Cl)cnc(NC(=O)COC(=O)c2cccc(S(=O)(=O)N3c4ccccc4CC3C)c2)c1Cl (stereo not drawn) | 1.41
